# Experimental data published in the supplement of paper PMC3334620.
# Over roughly 33,000 sequences, “E-score (-0.5 to 0.5)” has its median near -0.054; the highest 2% begin near 0.35. The list shows a part of the results.
# Biological target: T1, Stb5 (UniProt P38699)
# T1 sequence: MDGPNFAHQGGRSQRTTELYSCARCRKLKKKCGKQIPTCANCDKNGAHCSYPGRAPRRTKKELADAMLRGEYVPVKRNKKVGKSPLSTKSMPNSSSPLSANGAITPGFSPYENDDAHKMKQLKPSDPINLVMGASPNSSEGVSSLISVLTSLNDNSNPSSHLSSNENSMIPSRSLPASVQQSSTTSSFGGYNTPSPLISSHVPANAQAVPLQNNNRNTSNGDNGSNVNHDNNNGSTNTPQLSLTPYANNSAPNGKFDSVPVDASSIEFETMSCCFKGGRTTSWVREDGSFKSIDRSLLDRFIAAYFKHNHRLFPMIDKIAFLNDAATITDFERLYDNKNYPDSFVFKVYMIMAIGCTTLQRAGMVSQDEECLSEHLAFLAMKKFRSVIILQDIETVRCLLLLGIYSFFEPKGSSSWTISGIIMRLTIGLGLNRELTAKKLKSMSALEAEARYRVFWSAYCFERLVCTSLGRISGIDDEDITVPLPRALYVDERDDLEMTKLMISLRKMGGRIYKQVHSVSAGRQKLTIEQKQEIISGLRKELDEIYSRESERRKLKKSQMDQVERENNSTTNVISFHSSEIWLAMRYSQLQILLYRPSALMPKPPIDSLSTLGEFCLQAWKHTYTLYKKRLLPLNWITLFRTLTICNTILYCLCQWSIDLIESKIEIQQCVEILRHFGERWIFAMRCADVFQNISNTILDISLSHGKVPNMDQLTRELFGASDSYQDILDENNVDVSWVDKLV
# Experiment: PBM E-score (8-mer binding enrichment) (E-score (-0.5 to 0.5)); higher = stronger / more preferred TF binding; most listed sequences are background and not binding sites
# Details: protein concentration: 200 nM; construct: GST-full length
# Protocol: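 Universal 'all 10-mer' protein binding microarrays (Agilent AMADID 015681) probed with GST-tagged S. cerevisiae TFs (full-length or DBD) made by in vitro transcription/translation (PURExpress), about 100-200 nM. Bound TF was detected with fluorescent anti-GST. Each ungapped 8-mer (which stands for itself and its reverse complement) is scored by the PBM enrichment score (E-score), a modified Wilcoxon-Mann-Whitney statistic from -0.5 to +0.5, computed with the Universal PBM Analysis Suite. Scale: above 0.35 generally sequence-specific binding.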
row,Sequence,PBM E-score
1,CGTCGAGA,-0.112
2,CGGAGTAA,0.326
3,GACGTGGC,-0.00293
4,AGAAATAT,0.0277
5,CATCAACC,-0.058
6,CATTTTGC,0.0955
7,GGTCAACA,0.034
8,AGGGATAC,-0.112
9,AACCAGCG,-0.0594
10,GTTGCTGA,-0.039
11,CCTTTTCC,-0.13
12,ACAAACAC,0.11
13,CGCTACCA,0.156
14,AAACGAAC,-0.193
15,GGAGATGA,-0.125
16,TACGAGCA,-0.0236
17,GGTGATGA,0.0277
18,CAACACCA,-0.1
19,ATGAAGCA,-0.066
20,ACTTTGAC,-0.11
21,ACTAGAAA,-0.104
22,AACCCAAC,-0.152
23,GATTCCTA,-0.084
24,TAGTCCCA,-0.0173
25,CATTAGCG,0.122

row,Sequence,PBM E-score
1,AGCGCATG,-0.053
2,AGAGATGA,-0.292
3,AGCAGAAA,-0.0257
4,ATGCTCAG,-0.166
5,GTTCATGA,-0.152
6,CTCAATAC,-0.00735
7,ACACCCAG,-0.0423
8,TCCCTTCA,-0.152
9,AACATCGG,0.215
10,AATAAGGG,-0.258
11,CTATCCAA,-0.0612
12,GGCACCTA,0.0808
13,AGCATCTA,-0.168
14,CACATCGG,0.235
15,AAACATTG,-0.0452
16,AGTCGAGC,-0.308
17,AGTAATTC,0.16
18,AGAGAATA,0.0418
19,GTGCATTA,0.0507
20,GCAGCCTA,-0.171
21,TGTATACA,0.0199
22,CGAATCCA,-0.134
23,ATTTAAGC,0.054
24,CTTCATTA,-0.111
25,GGACCAAC,0.111

row,Sequence,PBM E-score
1,TAGCTTCA,-0.214
2,CGACATGA,0.0732
3,AGCTGACG,-0.0991
4,ATATTCTA,-0.0958
5,TAGTGATA,-0.201
6,CTACTTCC,0.0391
7,AAATGGGC,-0.165
8,CGAGGTAC,-0.0641
9,CATATGTA,-0.309
10,CTGTCCTC,-0.187
11,GACGTAGC,0.0409
12,ACGCTACG,-0.187
13,ATAGAGCA,-0.0745
14,GTCAGGTA,-0.145
15,CGTAAACA,0.115
16,GTATGTGA,-0.207
17,TGCGTGAA,0.122
18,CGAAACAG,-0.103
19,AAGGGGTA,-0.148
20,AACACCGA,0.479
21,AGGTGCAT,-0.292
22,CAGCTGTC,-0.31
23,GCTACCAC,-0.143
24,AACTCTCC,-0.0352
25,AGACATGC,-0.167

row,Sequence,PBM E-score
1,AGCCACAC,-0.266
2,AAACTCAT,0.0594
3,CGCAGATC,0.0136
4,CTGATACA,-0.0948
5,CGACTACG,0.0538
6,CGAGTCAA,-0.0935
7,CGGCGCCG,0.309
8,TAAACTCA,-0.0939
9,AAGCCTAA,-0.0259
10,CTAGACTC,-0.0615
11,ATGCATGA,-0.11
12,CATGAGCA,-0.162
13,AAGTCTCC,-0.0985
14,CAATTGTG,-0.133
15,ATACCGTC,0.357
16,ACGCGTCA,-0.109
17,GTCTGACA,0.0471
18,GAATCCGC,0.0516
19,TAACATCA,-0.16
20,ACCCAGGG,-0.146
21,CCGACCGC,0.284
22,TAGGACGA,-0.251
23,AGACCGTG,0.193
24,ACGTGAGC,-0.289
25,GCATCGAA,-0.199

row,Sequence,PBM E-score
1,AATCTACT,-0.134
2,AGCTCGCC,-0.178
3,GTCTTGCA,0.0877
4,GCATCACA,-0.0503
5,GCCTACAC,-0.0763
6,ATTCGTGG,-0.324
7,CTGCGGGA,0.144
8,ATAAGGAT,-0.188
9,CGTAATGA,0.016
10,CTTGAAGA,-0.229
11,ACAGCTTA,-0.289
12,ACTATACA,-0.138
13,TAATATGA,0.213
14,CGAGGGTA,0.012
15,TGATCCAA,-0.114
16,AAGTGGCC,-0.175
17,ATTGCGTA,-0.0853
18,CATCCGCG,0.192
19,ATAGCTAT,-0.151
20,AATGACGT,-0.172
21,AAGTACTA,-0.0229
22,CAATGAGC,-0.157
23,AAGTCATT,-0.361
24,AGAGGTAG,-0.0308
25,TATAAAAA,0.0224

row,Sequence,PBM E-score
1,CGAGCCCA,-0.196
2,ACCGCTAC,0.395
3,AGTCGCCC,-0.0584
4,CGGCGTCC,0.277
5,GTAAAACA,-0.168
6,AGTAGTTA,0.0553
7,CTCGAGAA,-0.178
8,ATGCTAGG,-0.088
9,CGCTATGA,0.0568
10,AGTCGGAT,0.306
11,CGGCATCA,0.387
12,GCTGGTAA,-0.0826
13,GCTCCATA,-0.0544
14,CGTGCTCC,-0.122
15,ACCCCGGG,0.392
16,ATTATCGG,0.327
17,GGGAGTCA,-0.163
18,GACAGAAC,0.00835
19,ACCCCATG,0.029
20,CTGCAAGA,-0.0254
21,ATAACCAT,-0.167
22,TTCCGGAA,0.212
23,CAAAGAAA,-0.125
24,GACTCTCC,-0.0655
25,AAATCCGT,0.281

row,Sequence,PBM E-score
1,GACTGACA,-0.125
2,ATTCGGTG,0.269
3,AGAGTCCA,-0.268
4,AAGCTACT,-0.277
5,ACCTTGCG,0.039
6,CTACCGGC,0.238
7,CACAAAAA,0.00822
8,ATGTGCAA,-0.179
9,CACTAGCC,-0.00479
10,ATATGAAG,-0.0551
11,GCTGGTTA,-0.142
12,CATACCAG,-0.0529
13,AAAGTTAG,-0.136
14,ATGTCGCC,0.189
15,GCGCCCCA,-0.019
16,AACAGCTC,-0.148
17,AGGAAATG,-0.125
18,TAAGTAAA,-0.0809
19,ACGATTAT,0.0316
20,AGCAGGTG,-0.0873
21,AACCGCCT,0.0427
22,AAGCTAAA,-0.0838
